Test results: PMC10987633, “Structural basis for RAD18 regulation by MAGEA4 and its implications for RING ubiquitin ligase binding by MAGE family proteins” (The EMBO Journal, 2024)
These are yes or no findings as the source states them, for the method shown. For part of these data: In cells and extracts the contact can be indirect. Some results given as binding are weak or reduced against the parent protein; the word gives no strength.

The chains behind the UniProt entries cited, without tags or fusion partners. Where a name states a change or a piece, a line headed by the entry shows the natural chain unless it says otherwise.
UniProt P43358: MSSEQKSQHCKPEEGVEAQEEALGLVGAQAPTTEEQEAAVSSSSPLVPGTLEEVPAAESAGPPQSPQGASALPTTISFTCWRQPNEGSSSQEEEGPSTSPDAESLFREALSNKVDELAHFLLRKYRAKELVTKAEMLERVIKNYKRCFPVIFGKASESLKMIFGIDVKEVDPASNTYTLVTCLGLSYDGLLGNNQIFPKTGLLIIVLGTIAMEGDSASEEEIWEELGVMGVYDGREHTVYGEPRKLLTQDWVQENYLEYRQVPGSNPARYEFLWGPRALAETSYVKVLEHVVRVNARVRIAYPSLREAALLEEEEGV

Legend:
[1] = target: T1, His-tagged full-length RAD18 wild type (human, UniProt Q9NS91 1-495); assay: pull-down; His-tagged RAD18 (WT or mutant) co-expressed with untagged MAGEA4 in E. coli; cleared lysate on TALON resin 1 h at 4 °C; lysis buffer 200 mM NaCl, 50 mM Tris pH 7.5, 10% glycerol; western blot
T1 construct: RAD18, RING E3 ubiquitin ligase, human, Uniprot Q9NS91, residues 1-495, full length; Cloned into PET15C; Dimer in the RAD18/RAD6 complex by AUC and mass photometry; also called RAD18 WT; FL RAD18; source: E. coli BL21star; co-expressed with untagged MAGEA4, in cleared lysate (His pull-down); co-expressed with RAD6 and purified as RAD18/RAD6 (TALON, SEC); not shown: His tag, N-terminal, kept

[2] = target: His-tagged full-length RAD18 A357D (human) (UniProt Q9NS91); assay: as above
[3] = target: His-tagged full-length RAD18 F350D (human) (UniProt Q9NS91); assay: as above
[4] = target: His-tagged full-length RAD18 V354D (human) (UniProt Q9NS91); assay: as above
[5] = target: His-tagged full-length RAD18 Y361D (human) (UniProt Q9NS91); assay: as above
[6] = target: full-length MAGEA4 triple mutant (M161D, I205D, L288D) (human) (UniProt P43358); assay: condition: 200 µM peptide titrated into 20 µM protein; ITC; RAD18 R6BD peptide at 200 µM titrated into protein at 20 µM; MicroCal ITC200, 25 °C; SEC buffer (100 mM NaCl, 20 mM HEPES pH 7.5, 1 mM TCEP); both purified

binding [1] | binding [2] | binding [3] | binding [4] | binding [5] | binding [6] | Molecule
binds | binds | binds weakly | binds | binds weakly |  | untagged full-length MAGEA4 wild type (from UniProt P43358 1-317)
 |  |  |  |  | no binding | SKYRKKHKSEFQLLVDQARKGYKKIAG (peptide, UniProt Q9NS91 340-366, looked up, also called 27 amino acid peptide corresponding to the RAD18 R6BD; source: synthetic peptide, bought: GenScript) [RAD18 R6BD peptide (residues 340-366)]
